Ends that are not written are not given here.

The test system of data set [1] is A549 cells. The following applies: for cytotoxicity (in words): A549 cells, peptide 48 h, CCK-8, tested 0.0625-40 µM, 3 independent experiments.
Data set [2] relates to H1N1 virus. In kind it is cell-based, influenza A virus A/Puerto Rico/8/1934 (PR8). The following applies: A549 cells, H1N1 MOI = 0.01, 24 h post-infection, 5 µM peptide, relative to HPRT.
Data set [3] has as its system H1N1 virus. Type of data set: cell-based, influenza A virus A/Puerto Rico/8/1934 (PR8). The following applies: supernatants of A549 cells, H1N1 MOI = 0.01, 5 µM peptide, plaques on MDCK cells.

As for KKWRKVIKKVVARYK-NH2 [Pc-2], the “cytotoxicity (in words)” value in data set [1] is recorded as “nontoxic”. On to RIKRFWPVVIRTVVAGYNLYRAIKKK-NH2 [Pc-1], for which the “concentration above which cytotoxicity is shown” value in data set [1] is listed as “above 10 µM”.

On to “VCVKKVRKLYKKIYKCR-NH2 (disulfide) [Pc-5]”, for which the “inhibition of H1N1 virus infection (qRT-PCR)” value in data set [2] is listed as “most robust antiviral response”. Also, the “production of viral particles (plaque formation assay)” value in data set [3] is on record as “significantly reduced the production of viral particles”. Besides, the “cytotoxicity (in words)” value in data set [1] is “nontoxic”.

On to VVKKVRKLYKKIYKR-NH2 [Pc-4], for which, in data set [1], the “cytotoxicity (in words)” value is listed as “nontoxic”.

Values taken from publication PMC11273436 (Antibiotics, 2024).
